{
  "source": "PubChem BioAssay AID624296",
  "about": "(National Center for Advancing Translational Sciences (NCATS), 2012)",
  "note": "Hit rate of the full screen: of about 350,000 compounds, about 9,900 (2.8%) were called active. The shares of active, inactive and inconclusive entries below differ from those in the screen. The call rests on the fitted dose curve; in most records, active means well fitted activation curve with a large enough effect; inconclusive means small, poorly fitted or top-dose-only effect; inactive means no such curve, though single readings can be large or run the other way. Potencies of inconclusive entries are left out as doubtful fits. Potency means the concentration at half of the fitted maximal effect; tags describe the fitted curve by direction and shape.",
  "data": [
    {"assay": "A quantitative high throughput screen for small molecules that induce DNA re-replication in MCF 10a normal breast cells; further: nearly all actives have a fitted effect of over 50% in size.", "settings": "MCF 10A DNA re-replication, Hoechst nuclear intensity, 48 h; series mostly up to 46.1 µM", "values": [
      {"compound": "O=C(Nc1nc2ccc(Cl)cc2s1)C1CC1", "Potency": "inactive"},
      {"compound": "O=C(COC(=O)c1ccc(O)cc1O)c1ccc2c(c1)OCO2", "Potency": "inactive"},
      {"compound": "O=C(c1cc(-c2cccs2)nn1-c1ccccc1)N1CCN(S(=O)(=O)c2ccccc2)CC1", "Potency": "inactive"},
      {"compound": "CC(=O)Nc1ccc(C(=O)N(C2=NC(C)CS2)c2ccc(Cl)cc2)cc1", "note": "(configuration not stated)", "Potency": "active: 5.17 µM"},
      {"compound": "COc1ccc(S(=O)(=O)N2CCCC2CNC(=O)C(=O)NC2CCCCCC2)cc1", "note": "(configuration not stated)", "Potency": "inconclusive [activator, single point]"},
      {"compound": "O=C(COC(=O)C12CC3CC(CC(C3)C1)C2)NCCCc1ccccc1", "Potency": "inconclusive [activator, full curve, poor fit]"},
      {"compound": "CCCOC(=O)C1=C(C)OC23OC(N)=C(C#N)C12C(=O)c1ccccc13", "note": "(configuration not stated)", "Potency": "inconclusive [activator, single point]"},
      {"compound": "Cc1[nH]c2ccccc2c1C(=O)COC(=O)c1c(-c2ccccc2)noc1C", "Potency": "inconclusive [activator, partial curve, poor fit]"},
      {"compound": "CCCn1c(NCc2ccc(C)o2)nc2ccccc21", "Potency": "inconclusive [activator, single point]"},
      {"compound": "Cc1cccc(NC(=O)CC2Nc3cccc4cccc(c34)NC2=O)c1", "note": "(configuration not stated)", "Potency": "inconclusive [activator, single point]"},
      {"compound": "Cc1cc(-c2ccc(C(C)C)c(S(=O)(=O)N3CCOc4ccccc43)c2)on1", "Potency": "inactive"},
      {"compound": "O=C(c1ccc(Cl)cc1Cl)N1CCN(c2ccccn2)CC1", "Potency": "inactive"},
      {"compound": "O=C(CSc1ccccc1C(=O)NCc1ccccc1)NC12CC3CC(CC(C3)C1)C2", "Potency": "inconclusive [activator, partial curve, poor fit]"},
      {"compound": "COc1ccc(CNc2ccc(Cl)cc2)cc1Cn1ccnc1", "Potency": "inconclusive [activator, single point]"},
      {"compound": "C/C(=N\\Nc1nc(C)cc(C)n1)c1ccc(N2CCOCC2)cc1", "Potency": "inconclusive [activator, single point]"},
      {"compound": "CCCCNC(=O)c1onc(CSc2ccccc2CC)c1C(=O)O", "Potency": "inconclusive [activator, full curve, poor fit]"},
      {"compound": "CCc1nc(NCC2CCCO2)c2oc3ccccc3c2n1", "note": "(configuration not stated)", "Potency": "inconclusive [activator, single point]"},
      {"compound": "CC(=O)OC1COC(N2CCc3cc(Br)c([N+](=O)[O-])cc32)C(OC(C)=O)C1OC(C)=O", "note": "(configuration not stated)", "Potency": "inconclusive [activator, partial curve, poor fit]"},
      {"compound": "O=C(CCN1CCCC1=O)NC1CCCc2c1cnn2-c1ccccc1F", "note": "(configuration not stated)", "Potency": "inactive"},
      {"compound": "O=C(O)c1cccc(N2C(=O)c3cc([N+](=O)[O-])cc4cc([N+](=O)[O-])cc(c34)C2=O)c1", "Potency": "inconclusive [activator, single point]"},
      {"compound": "O=C(c1coc(=O)c(Br)c1)N1CCC(C(O)(c2ccccc2)c2ccccc2)CC1", "Potency": "inconclusive [activator, single point]"},
      {"compound": "Cc1ccc(-c2csc(N(CCCN3CCOCC3)C(=O)c3ccco3)n2)cc1", "Potency": "inactive"},
      {"compound": "Cc1nc(N(C)Cc2ccccc2)c2c(C)c(C)sc2n1", "Potency": "inconclusive [activator, partial curve, poor fit]"},
      {"compound": "Cn1nc(-c2ccc(N3CCCCC3)c(NC(=O)c3ccco3)c2)c2ccccc2c1=O", "Potency": "inconclusive [activator, full curve]"},
      {"compound": "Cc1nn(-c2ccc(F)cc2)c(Cl)c1/C=C/C(=O)OCC(=O)Nc1ccc(F)cc1F", "Potency": "active: 14.6 µM"},
      {"compound": "Cc1ccc(C(C)C)c(Oc2cnccn2)c1", "Potency": "inactive"},
      {"compound": "COc1ccc(CCN2C(=O)C=CC2=O)cc1OC", "Potency": "active: 4.61 µM"},
      {"compound": "COc1ccc(N2C(=O)CC(N3CCN(c4ccc(Cl)cc4)CC3)C2=O)cc1", "note": "(configuration not stated)", "Potency": "inactive"},
      {"compound": "c1ccc(-c2cc(-c3ccccc3)n3ncnc3n2)cc1", "Potency": "inactive"},
      {"compound": "CCOC(=O)c1cc(-c2ccccc2)sc1NC(=O)C(C)(C)C", "Potency": "inactive"},
      {"compound": "Cc1cc2oc(=O)cc(CN3CCCCC3C)c2c(C)c1Cl", "note": "(configuration not stated)", "Potency": "inconclusive [activator, single point]"},
      {"compound": "O=C(COC(=O)c1cc(S(=O)(=O)N2CCCCC2)ccc1N1CCOCC1)c1ccccc1", "Potency": "inactive"},
      {"compound": "Cc1cc2c(cc1C)-c1c(ssc1=Nc1ccc(S(N)(=O)=O)cc1)C(C)(C)N2", "Potency": "inconclusive [activator, partial curve]"},
      {"compound": "CC(C)n1cnc2c(NCc3ccccc3)nc(NCc3ccccc3)nc21", "Potency": "inconclusive [activator, single point]"},
      {"compound": "CCOC(=O)/C(=C/c1ccc(OC(=O)c2ccccc2)cc1)C(C)=O", "Potency": "inconclusive [activator, partial curve]"},
      {"compound": "Cc1cccc(-n2c(=O)[nH]c3c(C(N)=O)nc(C(C)C)nc32)c1", "Potency": "inconclusive [activator, full curve]"},
      {"compound": "O=[N+]([O-])c1ccc(N2CCc3ccccc3C2)cc1", "Potency": "inactive"},
      {"compound": "CCNc1ccc(Br)cc(C(=O)/C=C/c2ccc(Cl)cc2Cl)c1=O", "Potency": "active: 20.6 µM"},
      {"compound": "O=C1COc2ccc(S(=O)(=O)Nc3ccc(F)cc3)cc2N1", "Potency": "inactive"},
      {"compound": "Cc1noc(C)c1C(=O)Nc1ccccc1N1CCOCC1", "Potency": "inactive"},
      {"compound": "CN(C)c1ccc(/C=N/NC(=O)CNC(=O)/C=C/c2ccco2)cc1", "Potency": "inconclusive [activator, single point]"},
      {"compound": "COC(=O)[C@]1(Cc2ccccc2)N[C@H](CN(C)S(=O)(=O)c2ccc(OC(F)(F)F)cc2)[C@@H]2C(=O)N(C)C(=O)[C@@H]21", "Potency": "inactive"},
      {"compound": "CCOC(CCNC(=O)c1cc2c(=O)[nH]c3ccccc3c2s1)OCC", "Potency": "inactive"},
      {"compound": "CC1=C(CC[C@@H](C)CO)OC2CC3C4CCC5CC(O)CCC5(C)C4CC(=O)C3(C)C12", "note": "(some centres not stated)", "Potency": "inconclusive [activator, single point]"},
      {"compound": "O=c1c2cc([N+](=O)[O-])cc([N+](=O)[O-])c2[nH]n1-c1ccccc1", "Potency": "inconclusive [activator, single point]"},
      {"compound": "O=C1C=C(Nc2ccccc2C(=O)O)c2ccccc2C1=O", "Potency": "inactive"},
      {"compound": "C(=NN1CCCCCC1)c1ccc2c(c1)OCO2", "Potency": "inactive"}
    ]}
  ]
}
